Out of some 73,000 compounds screened, about 1,800 (2.5%) were called active. The inconclusive results got no clear call from the source; some entries with a clear call stand among them for comparison. The call rests on the fitted dose curve; in most records, active means well fitted activation curve with a large enough effect; inconclusive means small, poorly fitted or top-dose-only effect; inactive means no such curve, though single readings can be large or run the other way. Potencies of inconclusive entries are left out as doubtful fits.
assay: qHTS Assay for Agonists of the Thyroid Stimulating Hormone Receptor: Activators of Intracellular cAMP Concentrations in Parental HEK 293; conditions: parental HEK293 CNG cAMP sensor, membrane potential fluorescence; activation: at 57.1 µM (top of the series) unless noted; further: nearly all actives have a fitted effect of over 55% in size; on activation: % of control where 0% means no effect
Outline: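 Counterscreen for endogenous-receptor signalling: CNG-channel HEK 293 cells report cAMP rise by membrane depolarization. After 60 min dye equilibration with 100 uM RO 20-1724, compounds incubated 30 min before bottom-read fluorescence at 590 nm.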
Potency means the concentration at half of the fitted maximal effect; tags describe the fitted curve by direction and shape.

| Structure (SMILES) | activation | Potency |
| --- | --- | --- |
| O=c1[nH]c(SCc2cccc([N+](=O)[O-])c2)nc2nc[nH]c12 | inactive: -3.6% [at 11.4 µM] |  |
| CC(C)(C)c1nc(NCC2CCCO2)c2nnn(Cc3ccccc3)c2n1 (centres undefined) |  | inconclusive [activator, partial curve] |
| CCOc1ncccc1C(=O)OCC(=O)c1cc(C)n(Cc2ccco2)c1C |  | inconclusive [activator, single point] |
| O=C(c1ccc(CS(=O)(=O)c2ccc(Br)cc2)o1)N1CCN(C2CCCCC2)CC1 |  | inconclusive [activator, single point] |
| CC1(C)CC(=O)C(C=Nc2ccncc2)=C(O)C1 |  | inconclusive [activator, single point] |
| COCCn1c(SCC(=O)NCc2cccs2)nnc1-c1ccc(OC)cc1 |  | inconclusive [activator, full curve] |
| O=c1c(-c2cc(F)cc(F)c2)nc2cncnc2n1C1CC1 |  | inconclusive [activator, single point] |
| COc1ccc(CCNC[C@H](O)c2ccc(O)cc2)cc1OC |  | inconclusive [activator, single point] |
| Cc1cccc2cc3c(NC(=O)c4ccccn4)nn(C)c3nc12 | inactive: 21% |  |
| COC(=O)[C@@]1(Cc2ccccc2)[C@H]2c3cc(C(=O)N4CCCC4)n(Cc4ccc(C(F)(F)F)nc4)c3C[C@H]2CN1C(=O)c1ccccc1 |  | active: 1.58 µM |
| CCOc1ccc(C(=O)CCN2CCCCC2)cc1 |  | inconclusive [activator, single point] |
| CCn1c(SCC(=O)Nc2nc(C)cs2)nnc1-c1ccco1 |  | inconclusive [activator, single point] |
| CCn1c(=O)c(C(=O)NCCCO)c(O)c2ccccc21 | inactive: 8.28% |  |
| CCN(CC)CCOc1cccc(C(C)C)c1 |  | inconclusive [activator, single point] |
| Cc1noc(C)c1-c1ccc2ncnc(N(C)C)c2c1 |  | inconclusive [activator, full curve] |
| COC(=O)c1c(-c2ccccc2)csc1NC(=O)c1ccco1 |  | inconclusive [activator, partial curve] |
| O=c1c(CCc2ccccc2)nc2cnc(N3CCOCC3)nc2n1-c1ccccc1 |  | inconclusive [activator, full curve] |
| CCOC(=O)Cc1csc(SCC(=O)c2c(N)n(CC(C)C)c(=O)n(C)c2=O)n1 |  | inconclusive [activator, partial curve] |
| COc1ccc(N2CCN(C(=O)c3ccc(NS(=O)(=O)c4ccccc4)cc3)CC2)cc1 | inactive: -9.56% |  |
| CC1(O)C(=O)C=C2C=C(CCCCOCc3ccccc3)OC=C2C1=O (centres undefined) | inactive: -7.6% [at 11.4 µM] |  |
| CN1c2ccccc2-c2nc3ccccc3n2C1c1ccccn1 (centres undefined) |  | inconclusive [activator, partial curve] |
| Cc1ccc(Cl)cc1N1CCN(C(c2ccc(C#N)cc2)c2nnnn2C2CCCC2)CC1 (centres undefined) |  | active: 1.26 µM |
| O=C(C1CCCN1S(=O)(=O)c1cccc2cccnc12)N1CCc2ccccc2C1 (centres undefined) |  | inconclusive [activator, single point] |

| Structure (SMILES) | activation | Potency |
| --- | --- | --- |
| CCOCCCNC(=O)c1cc2c(-c3ccc(Cl)cc3)nn(C)c2s1 | inactive: 17.3% |  |
| COc1cc(C2N(c3cccc(Cl)c3)C(=O)C3CCCN32)cc(OC)c1OC (centres undefined) | inactive: 18% |  |
| O=S(=O)(c1ccccc1)N1CCC[C@@]2(CCN(Cc3ccccc3)C2)C1 |  | inconclusive [activator, partial curve] |
| COc1cccc([C@@H]2Oc3ccc(OC)cc3/C(=N/O[C@@H](C)CN3CCCCc4nc(C)c(C)cc43)[C@@H]2O)c1 |  | inconclusive [activator, single point] |
| CN1CCN(c2ncncc2-c2ccc(C(=O)N(C)C)cc2)CC1 |  | inconclusive [activator, single point] |
| C=CCn1c(SCC(=O)c2cccs2)nc2sc(C)cc2c1=O |  | inconclusive [activator, partial curve] |
| CCCCNC(=O)c1cc2c(=O)n3cccc(C)c3nc2n(Cc2ccccc2)c1=N | inactive: -77.6% |  |
| CN(C)Cc1nc2c(c(=O)[nH]1)C1(CCCCC1)Cc1ccccc1-2 |  | inconclusive [activator, single point] |
| CCNC(=O)[C@@H]1O[C@@H](n2cnc3c(NCc4ccccc4)ncnc32)[C@@H](O)[C@H]1O |  | active: 3.16 µM |
| Cc1cccc(CN2CCC(CNC(=O)C3CCCN(S(=O)(=O)c4cnc[nH]4)C3)CC2)c1 (centres undefined) |  | inconclusive [activator, full curve] |
| CC(CCC(=O)O)(c1cc(Br)c(O)c(Br)c1)c1cc(Br)c(O)c(Br)c1 |  | active: 1.26 µM |
| COC(=O)[C@@]1(Cc2ccc(OC)cc2)[C@H]2c3cc(C(=O)N4CCCC4)n(Cc4cc(C)n(C)n4)c3C[C@H]2CN1C(=O)c1ccccc1 |  | active: 12.6 µM |
| Cc1nc2ccccc2c2c1C(=O)N(CCC1=CCCCC1)C2=O |  | inconclusive [activator, single point] |
| CC(=O)C1=C(C)NC(SCC(=O)c2ccc(Cl)c(Cl)c2)=C(C#N)C1c1ccco1 (centres undefined) | inactive: 7.34% |  |
| O=C(NCCCn1ccnc1)c1cn(-c2ccccc2)nc1-c1ccc(F)cc1 | inactive: -2.95% |  |
| CCCC(=O)NC(c1ccco1)c1cc(Cl)c2cccnc2c1O (centres undefined) |  | inconclusive [activator, partial curve] |
| CCOCC(=O)Nc1sc2c(c1C(=O)OCC)CCCC2 |  | inconclusive [activator, single point] |
| CCOC(=O)c1c(C)oc2cc(Br)c(OC(C)C(=O)OCC)cc12 (centres undefined) |  | inconclusive [activator, single point] |
| O=C(Nc1ccc2c(c1)ncn2-c1ccccc1)c1ccco1 | inactive: 24.7% |  |
| C=CCn1c(=O)c2ccccc2n2c(SCC(=O)c3ccccc3)nnc12 |  | inconclusive [activator, partial curve] |
| CC(=O)c1cc2c(cc1NC(=O)CN1CCN(c3cccc(C(F)(F)F)c3)CC1)OCO2 |  | active: 15.8 µM |
| Cc1cnn(-c2ccc3nnc(-c4ccc(Br)cc4)n3n2)c1 |  | active: 10 µM |
| COc1cccc2[nH]c3c(N4CCCCC4)ncnc3c12 | inactive: 5.41% |  |

| Structure (SMILES) | activation | Potency |
| --- | --- | --- |
| CCC1(CC)Cc2ccccc2C(N)=C1C#N |  | inconclusive [activator, partial curve] |
| CCOC(=O)Nc1nnc(-c2ccccc2OC)s1 | inactive: -0.875% |  |
| CN(C)c1ncnc2ccc(-c3ccc4c(c3)OCO4)cc12 |  | active: 25.1 µM |
| CCOC(=O)N1CCN(S(=O)(=O)c2ccc(OCC)c3ccccc23)CC1 |  | inconclusive [activator, single point] |
| Cc1ccc(-c2nc(CSCC(=O)NCCN3CCN(Cc4ccccc4)CC3)c(C)o2)cc1 |  | inconclusive [activator, partial curve] |
| COC(=O)[C@@]1(Cc2ccccc2)[C@H]2c3cc(C(=O)N4CCCC4)n(Cc4ccsc4Br)c3C[C@H]2CN1C(=O)c1ccccc1 |  | inconclusive [activator, full curve] |
| COc1ccc(CNC(=O)C(c2ccco2)N(Cc2cccs2)C(=O)Cc2cccs2)cc1 (centres undefined) |  | active: 20 µM |
| CC(C)CN1CN(S(=O)(=O)c2cccs2)c2nc3ccccc3nc21 |  | inconclusive [activator, single point] |
| O=C1CC(Cc2ccccc2)C(=O)N1CCCn1ccnc1 (centres undefined) | inactive: -1.95% |  |
| O=C(NCc1ccc2c(c1)OCO2)c1c(O)c2cccc3c2n(c1=O)CCC3 |  | inconclusive [activator, partial curve] |
| COC(c1ccccc1Br)C(C)/C=C/CCO (centres undefined) | inactive: -1.99% [at 11.4 µM] |  |
| CCN(CC(=O)Nc1ccc2c(c1)OCCO2)Cc1cc(=O)oc2c(C)c(C)ccc12 |  | inconclusive [activator, partial curve] |
| Cc1cccc(NC(=O)c2sc3nc(-c4ccc(F)cc4)cn3c2C)n1 |  | active: 20 µM |
| C=C(C)Cn1c(SCC#N)nc2ccccc2c1=O |  | inconclusive [activator, full curve, poor fit] |
| CCn1c(=O)n(CC)c2cc(S(=O)(=O)N3CCC(c4ccccc4)CC3)ccc21 |  | inconclusive [activator, full curve, poor fit] |
| CCOC(=O)CSC1=C(C#N)C(c2sccc2C)CC(=O)N1 (centres undefined) |  | inconclusive [activator, single point] |
| COc1ccccc1-c1nc(C#N)c(NCc2ccc(F)cc2)o1 | inactive: -2.18% |  |
| Cc1ccc(Cn2c(=O)c3ccccc3n3c(SCC(=O)N4CCCCC4C)nnc23)cc1 (centres undefined) |  | inconclusive [activator, single point] |
| Cn1c(CSc2nc3ccccc3s2)nc2ccccc21 |  | inconclusive [activator, partial curve] |
| COC(=O)[C@@H]1CC[C@H](C)[C@@H](c2ccc(C)cc2)N1C(=O)c1ccc(/C=N\O[C@@H](C)c2cc(-c3c(C)cc(C)cc3C)no2)cc1 | inactive: 21.1% [at 11.4 µM] |  |
| COCC(C)n1c(C)cc(C(=O)COC(=O)c2c(C)nn(-c3ccccc3)c2C)c1C (centres undefined) |  | inconclusive [activator, single point] |
| Cn1cnc(S(=O)(=O)N2CCc3ccccc32)c1 |  | inconclusive [activator, full curve, poor fit] |
| N#CCCn1c(=O)cnc2cnc(Oc3ccccc3)nc21 | inactive: 16.8% |  |

From PubChem BioAssay AID938 (National Center for Advancing Translational Sciences (NCATS), 2007)
